Results published in the supplement of paper PMC3334620.
Whole data set: some 33,000 sequences, median “E-score (-0.5 to 0.5)” near -0.054, cut for the highest 2% near 0.39. This is one part of the list.

Each sequence was assayed against Ylr278c (UniProt Q05854) (assay: PBM E-score (8-mer binding enrichment) (E-score (-0.5 to 0.5)); higher = stronger / more preferred TF binding; most listed sequences are background and not binding sites). Settings: protein concentration: 200 nM; construct: GST-DNA-binding domain.
How it was run: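 Bound GST-tagged yeast transcription factors, applied at about 100-200 nM to double-stranded universal all-10-mer Agilent arrays, were detected with fluorescent anti-GST. Scans were normalised with masliner. A modified Wilcoxon-Mann-Whitney statistic, the E-score, was assigned to each ungapped eight-base word pooled with its reverse complement by the Universal PBM Analysis Suite.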

| Sequence | PBM E-score |
| --- | --- |
| AACGTAGC | -0.227 |
| ATGACTTA | -0.154 |
| GCTGCTCC | 0.167 |
| CGCCGTCA | 0.196 |
| TCCGCTAA | 0.267 |
| ACCCTTCT | -0.172 |
| CGCTGTAC | 0.164 |
| ACATGGGC | -0.0183 |
| TAGGCAGA | -0.0968 |
| GCTGGGCA | -0.184 |
| AGGTCCTC | 0.0208 |
| AGCGTGAA | -0.331 |
| GAGTGATC | -0.0431 |
| ATTTACGA | -0.0425 |
| ATCTGACC | 0.0465 |
| AAGACCGC | 0.173 |
| ACCAACTA | -0.106 |
| TCCGGAGA | 0.483 |
| CATCATCG | 0.0849 |
| CCACCTAG | -0.143 |
| ATGAACTA | -0.104 |
| GATGGTGC | -0.293 |

| Sequence | PBM E-score |
| --- | --- |
| AGGTGCTA | -0.138 |
| ATACGTGA | -0.23 |
| CCCAGCCA | -0.186 |
| ATGTCTAG | -0.299 |
| CCTCGGTA | -0.0307 |
| ACGTCTTC | -0.0827 |
| ACCTATGC | -0.125 |
| CGCGTTAG | -0.0029 |
| ACCCCAGC | 0.0351 |
| ATTACGAA | -0.0647 |
| CCCGACAG | 0.192 |
| ACGCAAAC | -0.192 |
| CGGCATAG | 0.202 |
| TATTTTAA | -0.0522 |
| CCCATCAG | -0.225 |
| AGGCCGGC | 0.342 |
| CCCGTTAG | 0.0463 |
| ATATGAAT | 0.0231 |
| TCTCAAGA | -0.0861 |
| CGTATGGC | -0.233 |
| GTCTTGGA | -0.0512 |
| CCGCGCCC | 0.191 |

| Sequence | PBM E-score |
| --- | --- |
| AAGAGTAC | -0.15 |
| AATAGAGC | -0.104 |
| GGCCCGGA | 0.395 |
| CGAGGTCA | -0.0727 |
| GCTCCCGA | 0.0641 |
| CAAAATCA | -0.0575 |
| CGGTGTAG | 0.163 |
| ATAGTACA | 0.027 |
| AGCTGCGC | -0.0223 |
| AGGGAAGG | -0.13 |
| TAAATCTA | -0.154 |
| CCATTCTC | 0.0544 |
| ACTTGCGC | -0.0351 |
| AAGCATCA | -0.102 |
| ACCACTTC | 0.0505 |
| AACGCAAT | -0.0137 |
| CGATACTC | 0.162 |
| CCGTGAGG | 0.0292 |
| CCCAGGCA | -0.238 |
| AGACGTAC | -0.118 |
| AACCTCTC | -0.149 |
| AACGGCCG | 0.257 |

| Sequence | PBM E-score |
| --- | --- |
| ACACCTAT | -0.161 |
| TGTTAGAA | -0.207 |
| GTAACTTA | -0.146 |
| GGTTTCAC | 0.0826 |
| GGCTGGGA | -0.0666 |
| GCCTCTCA | -0.058 |
| CATCCCGA | 0.262 |
| GTATAAAA | 0.241 |
| TCGTTAGA | -0.063 |
| CTGTTGGC | -0.148 |
| AGTTCTAT | -0.0585 |
| ATGCGGAG | 0.385 |
| ACAACATG | -0.136 |
| ACGAGTGA | -0.197 |
| AGTGACCA | -0.0629 |
| GGCGCGAA | 0.128 |
| GTGAACAC | -0.0874 |
| ATATATTA | -0.0697 |
| TCTTAGCA | -0.0944 |
| AGTAAGTG | -0.128 |
| CGCGCGAC | 0.154 |
| TCCGAACA | 0.429 |

| Sequence | PBM E-score |
| --- | --- |
| AAAGGGGA | -0.125 |
| ACACTGTG | -0.214 |
| ACACGCAC | -0.0819 |
| CAGAAGGG | -0.252 |
| GACACACA | -0.103 |
| ATCCGCCC | 0.291 |
| ACGCCACG | 0.0245 |
| CCGCCAGA | 0.107 |
| CACGCAAC | 0.0827 |
| AACACCTA | -0.251 |
| ACGGTCAC | -0.0537 |
| CCCATGCC | 0.119 |
| CAGCAGCC | -0.273 |
| CGTACCAC | -0.105 |
| GCTACCCC | -0.00088 |
| CCCACGAA | -0.118 |
| CTTAGGAC | -0.291 |
| TACTAGCA | -0.189 |
| AGTGTTTG | -0.121 |
| TCCAGTAA | -0.156 |
| AGCTACAC | -0.159 |
| CGGCTGAC | 0.136 |
